Measurements published in patent US11365205B2 (Aurigene Discovery Technologies Limited, priority 2018, dated 2022).

Biological target: PRMT5/MEP50 Complex (Homo sapiens (Human), UniProt O14744)
Assay: PRMT5 inhibition based on TR-FRET assay
Type: biochemical
Conditions: 32 nM PRMT5:MEP50, 50 nM Histone-H4 peptide, 1 μM SAM
Source text: PRMT5 Inhibition Based on TR-FRET Assay:
Protein arginine methyltransferase 5 (PRMT5) is a type II arginine methyltransferase that catalyze mono- and symmetric demethylation on arginine residues of histone or non-histone proteins in presence of S-adenosylmethionine (AdoMet or SAM) a cofactor responsible for donating the methyl group. PRMT5 is reported to be overexpressed in several human cancers. To identify compounds that inhibit the PRMT5 and decrease its activity, a TR-FRET based assay has been established. Time-resolved fluorescence resonance energy transfer (TR-FRET) HTS assays are homogeneous proximity assays where the interaction of two dye-labeled binding partners is detected by the energy transfer between a donor and an acceptor dye and the subsequent light emission by the acceptor dye. PRMT5 catalyzes Histone H4 peptide which is biotin tagged to the Lysine amino acid at carboxyl end, in presence of S-adenosyl-1-methionine (SAM) to methylate the peptide. The antibody specific to mono methylated H4 peptide (H4R3) with Ig conjugate binds to the methylated peptide, indirectly binding to the Europium lanthanide. […]
The compound dilutions were prepared as 7.5% DMSO stock solutions in assay buffer. […] The plates were then read on Victor-3 with Excitation at 340 nm and Emissions collected at 615 and 665 nm in TR-FRET protocol. […]

Chain of UniProt O14744 (O14744 whole entry): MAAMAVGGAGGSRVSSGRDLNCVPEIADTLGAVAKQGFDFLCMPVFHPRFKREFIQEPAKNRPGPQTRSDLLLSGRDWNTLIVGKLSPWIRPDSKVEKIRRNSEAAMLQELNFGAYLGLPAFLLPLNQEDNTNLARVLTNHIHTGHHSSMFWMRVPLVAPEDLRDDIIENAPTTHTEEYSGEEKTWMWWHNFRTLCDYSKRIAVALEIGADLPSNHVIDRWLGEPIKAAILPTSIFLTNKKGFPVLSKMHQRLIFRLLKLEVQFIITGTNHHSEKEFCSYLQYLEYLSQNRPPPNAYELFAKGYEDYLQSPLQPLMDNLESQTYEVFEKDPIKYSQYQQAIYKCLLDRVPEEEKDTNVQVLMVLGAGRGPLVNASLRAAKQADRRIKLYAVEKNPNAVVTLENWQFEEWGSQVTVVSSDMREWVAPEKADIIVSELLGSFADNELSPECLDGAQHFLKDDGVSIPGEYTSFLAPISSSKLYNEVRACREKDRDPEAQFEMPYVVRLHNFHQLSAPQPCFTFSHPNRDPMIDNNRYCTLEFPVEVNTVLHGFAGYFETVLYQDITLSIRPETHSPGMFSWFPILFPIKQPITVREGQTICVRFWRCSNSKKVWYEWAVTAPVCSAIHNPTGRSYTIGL
Chain of UniProt O14744 (Q9BQA1 whole entry partner): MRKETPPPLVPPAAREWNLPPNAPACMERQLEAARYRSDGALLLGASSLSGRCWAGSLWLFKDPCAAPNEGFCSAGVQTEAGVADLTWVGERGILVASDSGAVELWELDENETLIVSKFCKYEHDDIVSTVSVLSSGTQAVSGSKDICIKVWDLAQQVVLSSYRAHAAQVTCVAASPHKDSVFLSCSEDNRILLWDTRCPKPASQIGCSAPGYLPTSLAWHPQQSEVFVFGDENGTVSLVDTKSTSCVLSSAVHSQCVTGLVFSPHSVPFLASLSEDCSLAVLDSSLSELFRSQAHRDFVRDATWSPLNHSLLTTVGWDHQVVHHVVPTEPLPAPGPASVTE

SMILES | IC50 [µM]
CC1(C)C(=O)N(Cc2ccc3c(c2)COCC3)C(=O)N1CC(O)CN1CCc2ccccc2C1 (centres unmarked) [Example 76, 1-(3-(3,4-dihydroisoquinolin-2(1H)-yl)-2-hydroxypropyl)-3-(isochroman-7-ylmethyl)-5,5-dimethylimidazolidine-2,4-dione] | 0.23
CC1(C)C(=O)N(Cc2ccc(C(F)(F)F)cn2)C(=O)N1CC(O)CN1CCc2ccccc2C1 (centres unmarked) [Example 77, 1-(3-(3,4-Dihydroisoquinolin-2(1H)-yl)-2-hydroxypropyl)-5,5-dimethyl-3-((5-(trifluoromethyl)pyridin-2-yl)methyl)imidazolidine-2,4-dione] | 0.84
